{
  "source": "patent USRE50631E1",
  "about": "“ROR1 antibody immunoconjugates” (VelosBio Inc., priority 2017, dated 2025)",
  "molecules": {"B1": {"name": "ADC-M: Ab1 conjugated via MAL-Phe-C4-VC-PAB to MMAE (conjugate)", "heavy": "QVQLQESGPGLVKPSQTLSLTCTVSGYAFTAYNIHWVRQAPGQGLEWMGSFDPYDGGSSYNQKFKDRLTISKDTSKNQVVLTMTNMDPVDTATYYCARGWYYFDYWGHGTLVTVSS[skipping human IgG1 constant region]", "light": "DIVMTQTPLSLPVTPGEPASISCRASKSISKYLAWYQQKPGQAPRLLIYSGSTLQSGIPPRFSGSGYGTDFTLTINNIESEDAAYYFCQQHDESPYTFGEGTKVEIKRTVAAPSVFIFPPSDEQLKSGTASVVCLLNNFYPREAKVQWKVDNALQSGNSQESVTEQDSKDSTYSLSSTLTLSKADYEKHKVYACEVTHQGLSSPVTKSFNRGEC"}, "B2": {"name": "ADC-P: Ab1 conjugated via MAL-Phe-C4-VC-PAB-DMEA to PNU-159682 (conjugate)", "heavy": "B1 heavy", "light": "B1 light"}},
  "key": {"Mino": {"test_system": "Mino", "experiment": "Cytotoxicity in vitro (CellTiter-Glo viability), Mino", "assay_type": "cell-based, human", "conditions": "Mino (MCL), 72 hours"}, "Jeko-1 MCL xenograft": {"test_system": "Jeko-1 MCL xenograft", "experiment": "Jeko-1 human MCL xenograft model (study 7)", "assay_type": "in vivo, mouse", "conditions": "1 mg/kg ADC-N, ADC-P, ADC-R; 5 mg/kg ADC-A, ADC-L, ADC-M, ADC-S, ADC-T; IV Q4D", "protocol": "Jeko-1 (MCL) cells were engrafted subcutaneously into mice. When tumor size reached 100 mm^3, the mice were randomized into nine groups, 9 mice/group. The groups were vehicle control; 1 mg/kg ADC-N, ADC-P or ADC-R; or 5 mg/kg ADC-A, ADC-L, ADC-M, ADC-S, or ADC-T. The mice were dosed IV q4d."}, "Jeko-1": {"test_system": "Jeko-1", "experiment": "Cytotoxicity in vitro (CellTiter-Glo viability), Jeko-1", "assay_type": "cell-based, human", "conditions": "Jeko-1 (MCL), 72 hours; read-out: EC50 (nM), cytotoxicity in vitro"}, "MDA-MB-468": {"test_system": "MDA-MB-468", "experiment": "Cytotoxicity in vitro (CellTiter-Glo viability), MDA-MB-468", "conditions": "read-out: EC50 (nM), cytotoxicity in vitro; MDA-MB-468 (TNBC), 72 hours", "protocol": "ROR1 binding by these conjugates was tested in cell culture to define the potency of various linker-cytotoxic agent combinations. Three different types of cancer cell lines were tested: B-lymphoma cell-lines TMD-8, HBL-1, and DOHH2; triple negative breast cancer cell lines HCC1187, MDA-MB-468, Bt549; and ovarian cancer cell lines A2008, TOV112D, JHOM1, and SKOvr3.\n(§1) Cells were cultured in log phase growth and distributed into 96-well plates. Each cell line was plated at a slightly different cell density, ranging from 5×10^3 to 50×10^4 cells/well. Cells in duplicate were incubated with 3-fold serial dilution of a particular immunoconjugate (10, 3.33, 1.11, 0.37, 0.12, 0.041, 0.014, and 0.0045 μM) for 72 hours at 37° C. and 5% CO2. After treatment, cells were incubated with an equal volume of CellTiter-Glo® reagent (Promega Inc.) for 15 minutes at room temperature and viability was determined by a luminometer. Curves and EC50 values were generated in GraphPad Prism using a sigmoidal dose response non-linear regression fit.\n(§2) Cells were grown and distributed into 96-well plates as described in Example 5. Cells in duplicate were incubated with 3-fold serial dilution of a particular immunoconjugate (660, 220, 73.3, 24.4, 8.14, 2.71, 0.91, and 0.3 nM) for 72 hours at 37° C. and 5% CO2. In some experiments, cells were incubated with an immunoconjugate for 96 hours instead of 72 hours (values highlighted with “*”). After treatment, cell viability was determined as described in Example 5. Cell surface ROR1 expression was assessed by quantitative flow cytometry and ROR1 expression was characterized as MFI>30 or MFI<30 (MFI: mean fluorescent intensity)."}, "[1]": {"biological_target": "T1, cell surface ROR1 on Jeko-1 cells (Homo sapiens, UniProt Q01973)", "T1 construct": "The Jeko-1 cell line, from mantle cell lymphoma, is a suspension cell line; host or cells: Jeko-1 (human mantle cell lymphoma)", "T1 sequence (Q01973 30-937)": "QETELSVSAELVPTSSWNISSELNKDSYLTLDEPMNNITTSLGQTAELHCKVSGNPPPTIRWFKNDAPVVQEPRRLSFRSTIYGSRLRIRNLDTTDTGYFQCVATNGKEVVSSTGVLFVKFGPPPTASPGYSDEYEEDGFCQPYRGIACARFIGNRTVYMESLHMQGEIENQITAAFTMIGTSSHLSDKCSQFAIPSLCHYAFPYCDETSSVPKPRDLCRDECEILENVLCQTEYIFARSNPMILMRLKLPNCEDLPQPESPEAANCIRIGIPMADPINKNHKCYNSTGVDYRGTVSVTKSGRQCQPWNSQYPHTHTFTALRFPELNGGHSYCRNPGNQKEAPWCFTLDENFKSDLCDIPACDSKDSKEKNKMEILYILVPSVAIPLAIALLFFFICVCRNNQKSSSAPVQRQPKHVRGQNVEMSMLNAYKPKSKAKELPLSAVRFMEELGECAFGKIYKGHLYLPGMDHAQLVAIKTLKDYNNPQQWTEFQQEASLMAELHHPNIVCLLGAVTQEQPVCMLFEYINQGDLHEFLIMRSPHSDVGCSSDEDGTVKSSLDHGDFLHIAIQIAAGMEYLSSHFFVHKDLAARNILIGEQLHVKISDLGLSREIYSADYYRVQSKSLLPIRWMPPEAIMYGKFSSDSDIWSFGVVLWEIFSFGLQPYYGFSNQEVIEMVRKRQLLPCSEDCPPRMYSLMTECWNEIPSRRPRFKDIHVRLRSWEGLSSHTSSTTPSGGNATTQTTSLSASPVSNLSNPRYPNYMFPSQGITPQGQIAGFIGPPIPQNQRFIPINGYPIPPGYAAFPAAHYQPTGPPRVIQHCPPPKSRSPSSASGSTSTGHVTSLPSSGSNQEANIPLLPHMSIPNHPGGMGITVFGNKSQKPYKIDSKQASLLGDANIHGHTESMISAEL", "experiment": "Cell surface ROR1 expression during internalization, Jeko-1 cells", "assay_type": "cell-based", "conditions": "up to 4 hours", "protocol": "Internalization of antibodies was measured using pulse-chase approaches that detected non-internalized, cell surface antibody at various time points (2, 5, 10, 15, 20, 30, 60, 120 and 240 minutes). In this study, in addition to measuring non-internalized cell surface antibody, the expression of ROR1 on the cell surface was quantitated either by (1) re-staining with Ab1 and a secondary antibody or (2) by using a second, labeled anti-ROR1 antibody that recognizes an epitope distinct from that of Ab1.\nFor the first approach, internalization of Ab1 on Jeko-1 cells was performed as described in Example 3 (one sample was processed at each time point to quantitate antibody remaining on the cell surface). Additionally, a second sample at each time point was rapidly re-stained using saturating levels of Ab1 (30 μg/mL) while maintaining the cells on ice. Subsequently, the cells were washed and surface antibody was quantitated using the same secondary antibody used for internalization measurements.\nAn alternative approach to measuring cell surface ROR1 expression in conjunction with Ab1 internalization studies was tested. Specifically, cell surface ROR1 expression was quantitated at 0, 0.5, 1, 2, and 4 hours by staining cells directly with a labeled anti-ROR1 antibody that binds an epitope distinct from that of Ab1."}, "MCF-7": {"test_system": "MCF-7", "experiment": "Cytotoxicity in vitro (CellTiter-Glo viability), MCF-7", "assay_type": "cell-based, human", "conditions": "MCF-7 (ER+/PR+/HER2− Breast), 72 hours"}, "Mec-ROR": {"test_system": "Mec-ROR", "experiment": "Cytotoxicity in vitro (CellTiter-Glo viability), Mec-ROR", "conditions": "read-out: EC50 (nM), cytotoxicity in vitro; Mec-ROR (CLL), 72 hours", "protocol": "as §1, §2\n(§3) The MEC1 cell line, which is derived from B-chronic lymphocytic leukemia in prolymphocytoid transformation, was transfected with either an expression vector encoding human ROR1 or a control vector, and stable cell lines were created using selection media containing G418."}, "Mec-vector": {"test_system": "Mec-vector", "experiment": "Cytotoxicity in vitro (CellTiter-Glo viability), Mec-vector", "conditions": "read-out: EC50 (nM), cytotoxicity in vitro; Mec-vector (CLL), 72 hours", "protocol": "as §1, §2, §3"}, "H460": {"test_system": "H460", "experiment": "Cytotoxicity in vitro (CellTiter-Glo viability), H460", "assay_type": "cell-based, human", "conditions": "H460 (NSCLC), 72 hours"}, "MDA-MB-231": {"test_system": "MDA-MB-231", "experiment": "Cytotoxicity in vitro (CellTiter-Glo viability), MDA-MB-231", "assay_type": "cell-based, human", "conditions": "MDA-MB-231 (TNBC), 72 hours"}},
  "data": [
    {"molecule": "B1", "values": [
      {"measurement": "EC50", "setting": "Mino", "value": 15.8, "unit": "nM"},
      {"measurement": "tumor growth / average tumor size (interim results, day 14)", "setting": "Jeko-1 MCL xenograft", "value": "Significant tumor regression"},
      {"measurement": "EC50", "setting": "Jeko-1", "value": 112, "unit": "nM"},
      {"measurement": "EC50", "setting": "MDA-MB-468", "value": 53.1, "unit": "nM"},
      {"measurement": "cell surface ROR1 expression during treatment", "setting": "[1]", "value": "ROR1 expression was maintained, or slightly increased"},
      {"measurement": "EC50", "setting": "MCF-7", "value": 164, "unit": "nM"},
      {"measurement": "EC50", "setting": "Mec-ROR", "value": 170, "unit": "nM"},
      {"measurement": "EC50", "setting": "Mec-vector", "value": 569, "unit": "nM"}
    ]},
    {"molecule": "B2", "values": [
      {"measurement": "EC50", "setting": "Mino", "value": 1.2, "unit": "nM"},
      {"measurement": "EC50", "setting": "H460", "value": 39.6, "unit": "nM"},
      {"measurement": "tumor growth / average tumor size (interim results, day 14)", "setting": "Jeko-1 MCL xenograft", "value": "inhibition of tumor growth"},
      {"measurement": "EC50", "setting": "Jeko-1", "value": 2.4, "unit": "nM"},
      {"measurement": "EC50", "setting": "MDA-MB-468", "value": 10.4, "unit": "nM"},
      {"measurement": "cell surface ROR1 expression during treatment", "setting": "[1]", "value": "ROR1 expression was maintained, or slightly increased"},
      {"measurement": "EC50", "setting": "MCF-7", "value": 30.9, "unit": "nM"},
      {"measurement": "EC50", "setting": "MDA-MB-231", "value": 24.7, "unit": "nM"},
      {"measurement": "EC50", "setting": "Mec-ROR", "value": 10.4, "unit": "nM"},
      {"measurement": "EC50", "setting": "Mec-vector", "value": 30.3, "unit": "nM"}
    ]}
  ]
}
